Assay results as given in PubChem BioAssay AID1671193 (National Center for Advancing Translational Sciences (NCATS), 2021).
“And” between values parts separate entries of the source, which are not always exact repeats. Identical values can stand only once. In all, about 150,000 compounds went through this assay and about 180 (0.12%) were called active. This list was built around the results that the source calls inconclusive (neither active nor inactive); the mix of calls is not that of the screen. Calls follow the shape of the dose curve; as a rule, active = well fitted cell-killing curve with a large enough effect; inconclusive = small, poorly fitted or top-dose-only effect, or effect the other way; inactive = flat fitted curve, though single readings scatter. Where the call is inconclusive, the potency comes from a doubtful curve fit.

Assay: GF-AFC viability counterscreen for inhibitors of alpha-synuclein gene (SNCA) expression; also: nearly all actives have a fitted effect of over 30% in size;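 as to activity change, negative = cytotoxicity: 0% = DMSO-treated cells and -100% = medium-only wells without cells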
Conditions: HEK-293-SNCA-luc viability, GF-AFC fluorescence, 24 h; activity change, negative = cytotoxicity: at 57.1 µM (top of the series) unless noted
How it was run: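 HEK-293-SNCA-luc cells (1500/well) plated 24 h, then exposed 24 h to a dilution series; GF-AFC added 30 min at 37C, fluorescence 405/540 nm; normalised to medium-only and DMSO wells, Hill fit.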
Potency is read from the fitted curve at half-maximal effect; tags tell the direction and shape of the fitted curve.

Row | SMILES | Potency | activity change, negative = cytotoxicity
1 | CC(=O)N[C@@H](CC(=O)O)C(=O)N[C@@H](CCC(=O)O)C(=O)N[C@H](C(=O)N[C@@H](CC(=O)O)C(=O)Nc1ccc2c(C)cc(=O)oc2c1)C(C)C | inconclusive: 8.44 µM [rising, single point] | –
2 | CCCn1c(C)cnc1CC1CCCN(C(=O)c2ccc(OC)cc2)C1 (stereo not given) | inconclusive: 3.98 µM [cytotoxic, full curve, poor fit] | –
3 | COc1ccc(CC(=O)N2Cc3ccccc3CC3(CCN(CC4CCNC4)C3)C2)cc1 (stereo not given) | inconclusive: 22.4 µM [cytotoxic, single point] | –
4 | CC(C)c1nnc2ccc(N3CCN(C(C)C)CC3)nn12 | inconclusive: 6.31 µM [cytotoxic, single point] | –
5 | CSc1ccc(C(=O)N[C@@H]2CCCC[C@@H]2NC(=O)CNC(=O)c2cc(C(F)(F)F)ccc2NC(=O)NC(C)C)cc1 | inconclusive: 37.7 µM [cytotoxic, single point] | –
6 | Cc1cccc(NC(=O)c2c(NC(=O)c3cccs3)sc3c2CCC(C)C3)c1 (stereo not given) | – | inactive: -2.17%
7 | O=C(Cc1cccc(C(F)(F)F)c1)N1CCCc2ncc(C(=O)N3CCCC[C@@H]3Cc3ccccc3)cc21 | – | inactive: -19.8%
8 | Cc1cnc(C2CC2)n1C1CCN(C(=O)NC(C)C)CC1 | inconclusive: 39.8 µM [cytotoxic, single point] | –
9 | COc1ccc(-n2c(=O)c3c(n2Cc2ccccc2)CN(Cc2ccc(F)cc2)CC3)cc1 | inconclusive: 20 µM [cytotoxic, partial curve, poor fit] | –
10 | CCCCCNC(=O)c1cc2c(=O)n3ccccc3nc2n1C | inconclusive: 1.78 µM [rising, full curve, poor fit] | –
11 | CN1CCN(CC2(O)CCC3(CCN(S(=O)(=O)N(C)C)CC3)CC2)CC1 | – | inactive: 21%
12 | Cc1ccccc1C(=O)N1CCCC(C(=O)N2CCCC(c3nc4ncccc4[nH]3)C2)C1 (stereo not given) | – | inactive: -5.88%
13 | O=C(NCc1ccc(F)cc1)C1CCCN1C(=O)c1cccc(-c2ccccn2)c1 (stereo not given) | – | inactive: -3.8%
14 | Cc1[nH]cnc1-c1nccn1CCCOC1CCN(C)CC1 | – | inactive: -7.57%
15 | CCN(CC)CCCNC(=O)CSc1nc(-c2ccc(OC)cc2)cc(C(F)(F)F)n1 | inconclusive: 39.8 µM [cytotoxic, partial curve, poor fit] | –
16 | COCCn1ccc2c(C3=CCOCC3)nc(-c3cccc(C(N)=O)c3)cc21 | inconclusive: 31.6 µM [rising, partial curve, poor fit] | –
17 | Cc1ccc(-c2nc(CNC(=O)[C@@H]3CCCN3)[nH]c2-c2ccccn2)cc1 | – | inactive: -1.37%
18 | COc1ccc(C(=O)NCC(=O)N2CCCCCNC(=O)CC2c2ccccc2)c(OC)n1 (stereo not given) | inconclusive: 39.8 µM [cytotoxic, partial curve, poor fit] | –
19 | COc1cccc(NC(=O)Nc2ccc3nc(N4CCN(C)CC4)cc(C)c3c2)c1 | – | inactive: -29.6%
20 | COCCn1cnc2ccc(OCC3CC3)nc2c1=O | – | inactive: 5.8% [at 87.6 µM]

Row | SMILES | Potency | activity change, negative = cytotoxicity
21 | O=C(O)c1ccc(O)c2ncc(N3CCOCC3)cc12 | inconclusive: 4.29 µM [cytotoxic, full curve, poor fit] | –
22 | CN(C(=O)CSc1nc2ccccc2n1CC(=O)N(C)C1CCCCC1)c1ccccc1 | inconclusive: 0.398 µM [cytotoxic, full curve, poor fit] | –
23 | COc1cc(CNCc2ccc(C)c(F)c2F)ccc1OCC(O)CN1CCC(O)CC1 (stereo not given) | inconclusive: 31.6 µM [cytotoxic, single point] | –
24 | CC(O)CCC1C(CO[C@@H]2O[C@H](CO)[C@@H](O)[C@H](O)[C@H]2O)CC(O)CC1(C)C (stereo not given in full) | inconclusive: 18.5 µM [rising, single point] | –
25 | CCOC(=O)c1c(NC(=O)c2ccc(S(=O)(=O)N3CCC(C)CC3)cc2)sc2c1CCN(C(C)C)C2 | inconclusive: 28.2 µM [rising, single point] | –
26 | COc1ccc(CCNC(=O)CCCn2c(=O)c3ccccc3n(CC(=O)Nc3cccc(C)c3)c2=O)cc1OC | inconclusive: 3.55 µM [cytotoxic, full curve, poor fit] | –
27 | CNc1nc(-c2ccccc2C)nc2ccccc12 | inconclusive: 1.78 µM [cytotoxic, full curve, poor fit] | –
28 | COc1ccc(NC(=O)Cn2c(-c3ccc(F)cc3)nc(C)c(CCO)c2=O)cc1Cl | inconclusive: 14.1 µM [cytotoxic, partial curve] | –
29 | C=C1C(=O)O[C@@H]2C[C@H](C)[C@@H]3CC(=O)[C@H](O)[C@@]3(C)C[C@H]12 | inconclusive: 4.74 µM [cytotoxic, partial curve, poor fit] | –
30 | CN1CCN(c2ncc3nc(-c4cccc(C#N)c4)c(=O)n(C[C@H]4CCCO4)c3n2)CC1 | inconclusive: 25.1 µM [rising, single point] | –
31 | CCOc1ccc2nc(S(N)(=O)=O)sc2c1 | inconclusive: 1 µM [rising, full curve, poor fit] | –
32 | Cn1nc(-c2ccccc2F)c2cc(C(=O)NCc3ccc(Cl)cc3)sc21 | inconclusive: 2.51 µM [rising, partial curve, poor fit] | –
33 | COCCn1c(=O)c(-c2ccccc2)nc2cnc(N(C)C)nc21 | inconclusive: 25.1 µM [rising, partial curve] | –
34 | COc1ccc(CC(=O)NCCc2sc(-c3ccc(Cl)cc3)nc2C)cc1OC | inconclusive: 17.8 µM [cytotoxic, single point] | –
35 | COc1ccc(-c2nc(C(C)C)nc3c2CCN(C(=O)c2ccccc2F)CC3)cc1 | inconclusive: 39.8 µM [cytotoxic, single point] | –
36 | CCc1ccccc1NC(=O)Cn1cccc1-c1nc(-c2ccccc2)no1 | – | inactive: 5.2%
37 | COc1cc(-c2nc3ccccn3c2Nc2ccccc2C)ccc1O | inconclusive: 17.8 µM [cytotoxic, partial curve] | –
38 | COc1ccc2nc(C[C@@H]3C[C@@H](C(C)C)[C@H](CNC(=O)NC4CCCCC4)C=C3C)[nH]c2c1 | inconclusive: 31.6 µM [cytotoxic, single point] | –
39 | COc1ccc(OC)c(C2c3c(-c4ccc(Br)cc4)n[nH]c3C(=O)N2c2ccc(Cl)cc2)c1 (stereo not given) | inconclusive: 2 µM [cytotoxic, full curve, poor fit] | –
40 | COc1ccc(NC(=O)Cn2c(=O)n(-c3cc(C)cc(C)c3)c(=O)c3oc4ccccc4c32)cc1OC | inconclusive: 15.8 µM [cytotoxic, partial curve, poor fit] | –

Row | SMILES | Potency | activity change, negative = cytotoxicity
41 | CCCC1C=CCN1C(=O)c1cc(-c2ccncc2)nc2ccccc12 (stereo not given) | inconclusive: 20 µM [cytotoxic, single point] | –
42 | Cc1ccc(NC(=O)C2(c3ccc4c(c3)OC(F)(F)O4)CC2)nc1-c1cccc(C(=O)O)c1 | inconclusive: 0.0607 µM [cytotoxic, full curve] | –
43 | CSc1cccc(NC(=O)N2CCC(c3cc(-c4cccc(C)c4)n[nH]3)CC2)c1 | inconclusive: 39.8 µM [cytotoxic, single point] | –
44 | O=C(NCc1cccs1)c1ccc2nnc(-c3ccc(OC(F)(F)F)cc3)n2c1 | – | inactive: -4.8%
45 | CCOc1ccc(CNC(=O)c2cccc(NC(=O)N3CCSc4ncccc43)c2)cc1OC | inconclusive: 22.4 µM [cytotoxic, single point] | –
46 | CC(=O)N1CCCc2cc(S(=O)(=O)N3CCCC(C(=O)N4CCN(c5cccc(Cl)c5)CC4)C3)ccc21 (stereo not given) | inconclusive: 31.6 µM [cytotoxic, single point] | –
47 | CNC(=O)c1ccc(Nc2ncc(C(F)(F)F)c(NCc3nccnc3N(C)S(C)(=O)=O)n2)cc1 | inconclusive: 9.47 µM [cytotoxic, partial curve] and inconclusive: 10.8 µM [cytotoxic, full curve] | –
48 | Cc1cc(C)cc(NC(=O)NCCc2c(C)nn(C)c2C)c1 | inconclusive: 0.158 µM [rising, single point] | –
49 | CCOc1ccccc1CNC(=O)c1cc2n(n1)CC(c1ccc(Cl)cc1)OC2 (stereo not given) | inconclusive: 39.8 µM [cytotoxic, single point] | –
50 | Cc1nc2cnc(N3CCN(C)CC3)nc2n(Cc2cccs2)c1=O | inconclusive: 39.8 µM [cytotoxic, single point] | –
51 | CNc1c(NC(=O)c2ccc(OC)c(OC)c2)c(=O)oc2ccccc12 | inconclusive: 2.51 µM [cytotoxic, full curve, poor fit] | –
52 | O=C(Cn1nccn1)NC1CC(c2cc(N3CCC(O)C3)ncn2)C1 (stereo not given) | inconclusive: 2.82 µM [cytotoxic, full curve] | –
53 | COc1ccccc1OCCn1c(NC(=O)c2ccccc2Cl)nc2ccccc21 | inconclusive: 35.5 µM [cytotoxic, partial curve, poor fit] | –
54 | OC(CNCCc1c[nH]c2ccccc12)Cn1c2ccccc2c2ccccc21 (stereo not given) | inconclusive: 21.2 µM [cytotoxic, single point] | –
55 | COCCn1c(=O)n([C@H]2CCCN(C(=O)COc3ccccc3)C2)c2ncccc21 | inconclusive: 31.6 µM [rising, partial curve, poor fit] | –
56 | Cc1noc2c(NC(C)C)cc(-c3cccs3)nc12 | – | inactive: 2.48% [at 87.6 µM]
57 | Cc1nc(-c2ccc(F)cc2)n(CC(=O)Nc2cccc(C#N)c2)c(=O)c1CCO | inconclusive: 12.6 µM [cytotoxic, partial curve, poor fit] | –
58 | Cn1c(=O)c(-c2ccc(F)cc2)nc2cnc(N3CCOCC3)nc21 | inconclusive: 14.1 µM [rising, single point] | –
59 | COc1ccc(-n2c(=O)c(-c3cccs3)nc3cnc(N4CCN(C)CC4)nc32)cc1 | inconclusive: 15.8 µM [rising, partial curve] | –
60 | CN(C)c1ccc(CNC(=O)c2ccc(Cn3c(SCc4ccccc4)nc4cccnc43)cc2)cc1 | inconclusive: 35.5 µM [cytotoxic, single point] | –
